Paper PMC10088252
Where two headings read alike, the source gives them in different places. Some entries of the source have several records that differ or are many. The list is limited to them. There may be further records. Values that stand side by side read as repeated measurements on other runs, samples or individuals.

Test system: locally advanced or metastatic NSCLC harboring c-MET overexpression or MET exon 14 skipping mutation
Type: in vivo, human
Protocol: Patients enrolled in this study were divided into two parts. […] Patients with pre-existing c-MET overexpression at hospital diagnosis were also included in Part A. In Part B, patients in the 400 mg bis in die (BID) dose cohort, blood and tissue samples were collected to perform NGS to determine the MET exon 14 skipping mutation. Patients harboring pre-existing MET exon 14 skipping mutation at hospital diagnosis were also enrolled into Part B. […] Statistical analyses were performed using SAS version 9.4 (SAS Institute, Cary, NC, USA). Age was expressed as median (range), and categorical variables were expressed as frequency (percentage). The 95% CIs of ORR and DCR were calculated using Clopper-Pearson method. […] No imputation method was performed for missing data.

Compound: O=C(Nc1ccc(Oc2ccnc3c2CCN3)c(F)c1)c1c[nH]cc(-c2ccc(F)cc2)c1=O
- OS, median (95% CI) (300 mg QD (n=12)): NE (4.0, NE) [table] and NE (95% CI 4.0 months–NE) [text]
- OS, median (95% CI) (600 mg QD (n=10)): NE (2.6, NE) [table] and NE (95% CI 2.6 months–NE) [text]
